Experimental data: patent US12297265B2, “Antibody and use thereof” (SICHUAN KELUN-BIOTECH BIOPHARMACEUTICAL CO., LTD., priority 2018, dated 2025)

Assays:
[1] = system: Ba/F3-Claudin 18.2 cells; experiment: ADCC activity on Ba/F3-Claudin 18.2 cells (NK-92MI_mCD16, CytoTox-Glo); format: cell-based; conditions: Ba/F3-Claudin 18.2 target cells, NK-92MI_mCD16 effector cells, 6h
Protocol: In order to evaluate the ADCC activity, ten thousand Ba/F3-Claudin18.2 cells were cultured in 40 μl NK-92 media. Antibodies were serially diluted in 10 μl PBS. Fifty thousand NK-92MI_mCD16 cells in 50 μl NK-92 media were added and the reactions were incubated at 37° C. for 6h. 33.3 μl CytoTox-Glo (Promega, G9290) was added to each reaction […].

[2] = molecular target: T1, human Claudin 18.1 (Homo sapiens, UniProt P56856); experiment: Specificity by FACS, HEK293T-human Claudin 18.1 cells; format: binding; conditions: antibody 1000 nM
T1 construct: expressed in transfected cells; host or cells: HEK293T, infected with pLVX-IRES-puro lentivirus; clone HEK293T-Claudin 18.1-1C2
Protocol: The specificity of candidate antibodies was detected by FACS. The steps are as follows, HEK293T, HEK293T-human Claudin 18.1 and HEK293T-human Claudin18.2 cells were detached and then centrifuged. After washing twice with PBS, the cells were resuspended with PBS containing 1% BSA. 300,000 cells for each cell line were added with the candidate antibodies at a final concentration of 1000 nM, mixed well, and incubated for 1 h at 4° C., protected from light. Then the cells were washed for three times with PBS and FITC-labeled anti-human Fc secondary antibody (BioLegend, 409322) was added, followed by 0.5h of incubation at 4° C. in the dark. Detection was performed by flow cytometry (Beckman, Cytoflex) after washing with PBS for three times.

[3] = system: KATOIII-Claudin 18.2 cells; experiment: NK cell mediated ADCC on KATOIII-Claudin 18.2 cells (LDH); format: cell-based; conditions: KATOIII-Claudin 18.2 target cells, NK92MI-CD16a effector cells
Protocol: (§1) The steps were as follows: HEK293T-Claudin 18.2, L929-Claudin 18.2, KATOIII-Claudin 18.2 and NUGC-4 cells were harvested and centrifuged followed by adjustment of cell density. 1×10^4/well of cells were plated on a plate and incubated overnight. The medium was removed on the next day. NK92MI-CD16a cells (Huabo Biopharm) were centrifuged, resuspended in MEMA medium and adjusted to 1×10^6/mL, then 50 μL/well cells were added to the corresponding wells. […] For HEK293T-Claudin18.2, L929-Claudin18.2 and KATOIII-Claudin18.2 cells, ten antibody concentrations were tested, starting from 40 μg/mL with 5-fold dilution. For NUGC-4 cells, eleven antibody concentrations were tested, starting from 2 mg/mL with 5-fold dilution. 50 μL/well of the diluted antibodies were added to the corresponding wells and the reactions were left to stand in incubator at 37° C., 5% CO2 and incubated for 5.5h. Lysis buffer was then added to the positive control well and incubated for another 0.5h. 50 μL/well of Lactate Dehydrogenase (LDH) detection agent (DOJINDO LABORATORISE, CK12) were added to the wells and the absorbance at 490 nm were taken every 10 min on a plate reader (MD, SpectraMax M2). The results were imported into Graphpad Prism for curve fitting.

[4] = system: NUGC-4 cells; experiment: NK cell mediated ADCC on NUGC-4 cells (LDH); format: cell-based, human; conditions: NUGC-4 target cells, NK92MI-CD16a effector cells
Protocol: as §1

[5] = Pharmacokinetics in SCID mice; format: in vivo; conditions: 10 mg/kg intravenously
Protocol: Blood samples were taken 8 h, 1 d, 3 d, 8 d and 15 d after injection and serum antibody concentrations were determined by Cellular ELISA as described in Example 8. […] The data of mouse serum was subjected to curve fitting.

[6] = molecular target: human Claudin18.2 (Homo sapiens, UniProt P56856); experiment: FACS positive rate of NUGC-4 cells; format: binding; set-up: cell lines endogenously expressing human Claudin18.2; host or cells: NUGC-4 human gastric cancer cell line; conditions: NUGC-4 cells endogenously expressing human Claudin18.2, FACS
Protocol: To determine binding affinity of the candidate antibodies to cell lines endogenously expressing human Claudin18.2, FACS analysis was performed to detect human Claudin18.2 expression level on NUGC-4 cells (purchased from Japan JCRB cell bank, catalog number: JCRB0834) which endogenously expresses human Claudin18.2. […] The binding affinity between candidate antibodies and NUGC-4 cells was then determined by Cellular ELISA following the same protocol as above.

binding to human Claudin 18.1 [2]: not human Claudin 18.1
NUGC-4 cells tested positive for Claudin 18.2 [6]: 80%
B1: 1E9.2-hz11: humanized antibody of 1E9.2; VH SEQ ID NO: 29, VL SEQ ID NO: 33; heavy chain SEQ ID NO: 102, light chain 103 (antibody)
heavy: EVQLVESGGGLVKPGGSLRLSCAASGFSFSNSAMSWVRQAPGKGLEWVSTISSGDSYTYYADSVKGRFTISRDNAKNSLYLQMNSLRAEDTAVYYCARQGYGNALDYWGQGTLVTVSS[sequence of human IgG1 constant region omitted]
light: DIVMTQSPDSLAVSLGERATINCKSSQSLLNSGNQKNYLTWYQQKPGQPPKLLIYWSSTRESGVPDRFSGSGSGTDFTLTISSLQAEDFAVYYCQNDYYYPLTFGGGTKVEIKRTVAAPSVFIFPPSDEQLKSGTASVVCLLNNFYPREAKVQWKVDNALQSGNSQESVTEQDSKDSTYSLSSTLTLSKADYEKHKVYACEVTHQGLSSPVTKSFNRGEC
modifications: heavy chain amino acid sequence of humanized antibody 1E9.2 hz11; light chain amino acid sequence of humanized antibody 1E9.2 hz11
ADCC EC50 [1]: 0.041* μg/mL
Max killing rate [1]: 60.17* %
Max. Cytotoxicity [3]: 64%
Max. Cytotoxicity [4]: 43%
AUC [5]: 9088.87 µg·h/mL

Marks after values point to notes of the source that are not given here.
